Data: PubChem BioAssay AID1347417 (National Center for Advancing Translational Sciences (NCATS), 2020)
“And” between values parts separate entries of the source, which are not always exact repeats. Equal entries are not always repeated. About 5,300 (4.4%) of roughly 120,000 compounds were called active. The shares of active, inactive and inconclusive entries below differ from those in the screen. Calls follow the shape of the dose curve; as a rule, active = well fitted inhibition curve with a large enough effect; inconclusive = small, poorly fitted or top-dose-only effect; inactive = no such curve, though single readings can be large or run the other way. A potency beside an inconclusive call is a rough fit, not a confirmed value.

Experiment: qHTS Primary assay for Inhibitors of Plasmodium falciparum Dd2 growth in vitro; also: nearly all actives have a fitted effect of over 65% in size;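 as to activity, negative = inhibition: plate controls were DMSO vehicle for no effect and reference drug for full effect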
Details: P. falciparum Dd2 growth, SYBR Green, 72 h; activity, negative = inhibition: at 28.9 µM (top of the series) unless noted; series mostly up to 28.9 µM
Method in brief: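 Readout: SYBR Green fluorescence, 485 nm excitation, 535 nm emission, after ~16 h lysis at 37C. Before that, Dd2-infected red cells (2.5% hematocrit) grew 72 h with compound, 29 uM top final concentration.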
Potency is read from the fitted curve at half-maximal effect; tags tell the direction and shape of the fitted curve.

Row | SMILES | Potency | activity, negative = inhibition
1 | O=c1[nH]c(C2CCCN(Cc3cccc(Cl)c3)C2)nc2ccc(F)cc12 (configuration not stated) | inconclusive: 12.6 µM [inhibitor, partial curve, poor fit] and active: 10 µM | –
2 | COc1ccc(OCc2nc(C(=O)NC(C)c3ccccc3)co2)cc1 (configuration not stated) | inactive | –
3 | CCOc1ccccc1NC(=O)N1CCCN(S(C)(=O)=O)C(c2ccccc2)CC(=O)NCC1 (configuration not stated) | inactive | –
4 | O=C(CSc1nc2c([nH]c3ccccc32)c(=O)n1-c1ccc(F)cc1)NCc1ccc(F)cc1 | inconclusive: 17.8 µM [inhibitor, single point] | –
5 | CN1CCN(Cc2ncc[nH]2)CC12CCC(=O)N(CC(=O)O)CC2 (configuration not stated) | inactive | –
6 | COc1ccc(Cn2c(C3CCN(C(=O)c4ccc(C(C)(C)C)cc4)CC3)n[nH]c2=O)cc1 | inconclusive: 3.16 µM [inhibitor, partial curve, poor fit] | –
7 | Cc1noc(-c2cccs2)c1C(=O)NCCc1cccs1 | inconclusive: 2.82 µM [inhibitor, single point] | –
8 | COc1ccc(C(=O)NC2CCN(c3cc(-c4ccccc4)[nH]n3)C2)cc1OC (configuration not stated) | inconclusive: 5.62 µM [inhibitor, partial curve, poor fit] | –
9 | COc1ccc(C[C@H](NC(=O)[C@@]2(O)C[C@@H](O)[C@H](O)[C@@H](NC(=O)Nc3ccc(C(C)=O)cc3)C2)C(N)=O)cc1 | inactive | –
10 | C=CCN1CCN(CC2(O)CCCN(Cc3cc(OC)ccc3F)C2=O)CC1 (configuration not stated) | inactive | –
11 | O=C(CCn1ccn2nc3c(c2c1=O)CCCC3)Nc1ccc(F)cc1F | inconclusive: 10 µM [inhibitor, single point] | –
12 | CCOc1ccc(NC(=O)c2sc3nc4c(cc3c2N)CN(Cc2ccccc2)CC4)cc1 | inconclusive: 17.8 µM [inhibitor, single point] | –
13 | CCN(CCNC(=O)CC1=C2CCCCC2N(C)C1=O)Cc1ccccc1 (configuration not stated) | inconclusive: 12.6 µM [inhibitor, single point] | –
14 | COc1ccc(-c2noc([C@@H]3C[C@H](NCc4cccc(C#N)c4)CN3C)n2)cc1 | inconclusive: 25.1 µM [inhibitor, single point] | –
15 | O=C(NCc1ccc(Cl)cc1)C1CCN(C(=O)c2ncn3c2COC(c2ccccc2)C3)CC1 (configuration not stated) | inconclusive: 3.98 µM [inhibitor, single point] | –
16 | C(Cc1noc(C2CNC2)n1)OCC1CC1 | active: 5.01 µM | –
17 | O=C1CCN(S(=O)(=O)c2ccccc2)CCCN(CC2CCCCC2)CCN1 | inconclusive: 17.8 µM [inhibitor, single point] | –
18 | Cc1ccc(CN(Cc2cccn2-c2nnc(N3CCCC3=O)s2)C(=O)Nc2ccc(F)cc2)cc1 | inconclusive: 12.6 µM [inhibitor, single point] | –
19 | O=S(=O)(c1ccc(F)cc1)N(Cc1nc(-c2ccccc2)no1)C1CCCCC1 | inconclusive: 10 µM [inhibitor, single point] | –
20 | CC1=NOC2(CCN(Cc3ccccc3)C2)C1 (configuration not stated) | inactive | –
21 | COc1ccc(C(=O)N[C@@H]2C=C[C@@H](c3c(C)nn(-c4ccccc4)c3C)C2)cc1 | inactive | –
22 | CCOc1ccc(NC(=O)Cn2c(=O)n(Cc3ccco3)c(=O)c3ccc(C(=O)NC4CCCC4)cc32)cc1 | inconclusive: 1.26 µM [inhibitor, single point] | –
23 | O=C1CC(c2cccc(Cl)c2Cl)c2cc3c(cc2N1)OCCO3 (configuration not stated) | inactive | –

Row | SMILES | Potency | activity, negative = inhibition
24 | CCOC(=O)c1ccccc1NC(=O)NCc1cccn1Cc1ccc(F)cc1 | inconclusive: 17.8 µM [inhibitor, single point] | –
25 | O=C(Nc1ccc2c(c1)OCCO2)N1CCN(C(=O)N2CC3CC(C2)[C@H]2CCCC(=O)N2C3)CC1 (some centres not stated) | inactive | –
26 | COc1ccc(OC)c(NC(=O)CCn2cccn2)c1 | – | inactive: 14.9% [at 5.79 µM]
27 | CC(C)c1nc2c(c(-c3ccc(O)cc3)n1)CCN(Cc1ccccc1C(F)(F)F)CC2 | inconclusive: 1.58 µM [inhibitor, full curve, poor fit] | –
28 | Cc1nc2ccc(C(=O)N3CCCC(C)(Cc4ccc5c(c4)OCO5)C3)cc2o1 (configuration not stated) | inactive | –
29 | Cc1ccc(-c2nnc(SCC(=O)NCc3ccccc3)nc2-c2ccc(C)cc2)cc1 | inconclusive: 15.8 µM [inhibitor, single point] | –
30 | COc1ccccc1N1CCN(C(=O)c2cnc(N3CCCCC3)c3ccccc23)CC1 | inconclusive: 8.91 µM [inhibitor, partial curve] | –
31 | CCOC(=O)c1cnc2ccccc2c1Nc1cccc(OC)c1 | inconclusive: 11.2 µM [inhibitor, single point] | –
32 | O=C(CC1CCCC1)N1[C@H]2CC[C@@H]1c1cnc(-c3ccc(F)cc3)nc1C2 | inconclusive: 8.91 µM [inhibitor, partial curve, poor fit] | –
33 | O=C(Cc1ccccc1)NC1CCCc2c1[nH]c1c(Cl)cccc21 (configuration not stated) | inconclusive: 10 µM [inhibitor, partial curve, poor fit] | –
34 | CNC(=O)N1CCC(C2CCN(C(=O)NCc3ccc(F)cc3)C2)CC1 (configuration not stated) | inactive | –
35 | CC(=O)N1c2c(cc(Br)cc2S(=O)(=O)N2CCN(c3ccccc3)CC2)CC1C (configuration not stated) | inactive | –
36 | O=C(Cn1cnnn1)N1CC(c2noc(C3CCCN3CC3CC3)n2)C1 (configuration not stated) | inconclusive: 10 µM [inhibitor, single point] | –
37 | CCc1noc(-c2cn(C3CCN(C(=O)c4ccccc4)CC3)nn2)n1 | inconclusive: 10 µM [inhibitor, single point] | –
38 | N#Cc1cccc(NC(=O)O[C@@H]2CO[C@H]3[C@@H]2OC[C@@H]3Nc2nccc(-c3cccc(C#N)c3)n2)c1 | inactive | –
39 | O=C1CC2(CCN(Cc3ccc(C(F)(F)F)cc3)C2)Nc2ccccc2N1 (configuration not stated) | inconclusive: 7.08 µM [inhibitor, single point] | –
40 | Cn1c(=O)c2sccc2n2c(CCCC(=O)Nc3ccc(Oc4ccc(Cl)cc4)cc3)nnc12 | inconclusive: 10 µM [inhibitor, single point] | –
41 | Cc1ccc(C(=O)N2CCN(c3nnc4c(Cl)cccn34)CC2)cc1F | inconclusive: 0.794 µM [inhibitor, full curve] | –
42 | CCc1cccc(NC(=O)N2CCC(c3noc(COc4ccc(F)cc4)n3)CC2)c1 | inactive | –
43 | Cc1ccc(Cl)cc1N1CCN(C(=O)c2ccc3nc(N4CCC(C)CC4)sc3c2)CC1 | inconclusive: 12.6 µM [inhibitor, single point] | –
44 | Cn1ccnc1CN1C[C@@H](C(=O)O)C[C@@H](C(=O)NCc2ccncc2)C1 | inactive | –
45 | O=C1NCCCCCN(C(=O)NCc2ccc(F)cc2)[C@H]2CCC[C@@H]12 | inactive | –
46 | C[S+](=O)([O-])N1Cc2ccccc2OC2(CCN(C(=O)c3ccc4[nH]ccc4c3)CC2)C1 | inconclusive: 11.2 µM [inhibitor, partial curve] | –

Row | SMILES | Potency | activity, negative = inhibition
47 | CCN1C(=O)c2ccccc2S(=O)(=O)c2ccc(C(=O)NCc3ccccc3Cl)cc21 | inconclusive: 17.8 µM [inhibitor, single point] | –
48 | CN(CCOc1ccccc1)Cc1nc(-c2ccccn2)no1 | inactive | –
49 | COc1ccccc1NC(=O)Cn1ccn2nc3c(c2c1=O)CCCC3 | inactive | –
50 | CC(C)c1nc2c(c(-c3ccc(Cl)cc3)n1)CCN([S+](=O)([O-])c1cccs1)CC2 | inconclusive: 10 µM [inhibitor, single point] | –
51 | COc1ccc(CNC(=O)N2CCCC(CN3CCCC3)CC2)cc1 (configuration not stated) | inconclusive: 1.78 µM [inhibitor, partial curve] | –
52 | CC(C)CCN1C(=O)CC[C@@]2(C(=O)NCc3ncc[nH]3)CCCC[C@H]12 | inactive | –
53 | COc1ccc(CNc2cc3c(cn2)CN(Cc2ccccc2)CCN3)cc1OC | inactive | –
54 | OC1(c2cccc(C(F)(F)F)c2)CCN(Cc2nc(COc3ccccc3)no2)CC1 | inconclusive: 20 µM [inhibitor, single point] | –
55 | Cc1c(O)cccc1C(=O)N1CC[C@@H](NC(=O)c2ccccn2)[C@H](O)C1 | inactive | –
56 | CC(C)OC(=O)c1cccnc1SCC(=O)Nc1ccc(C(F)(F)F)cc1Cl | active: 3.16 µM | –
57 | O=[S+]1([O-])NC2(CCN(Cc3c[nH]c4ccccc34)CC2)COc2ccccc21 | inconclusive: 11.2 µM [inhibitor, single point] | –
58 | CC(=O)N1CCC(C(=O)N[C@H]2CCN3C(=O)N(c4cccc(C(F)(F)F)c4)C(=O)[C@@H]3C2)CC1 | inactive | –
59 | CCN1CCN(C(=O)c2ccc3c(c2)N(Cc2ccccc2F)C(=O)c2ccccc2S3=O)CC1 (configuration not stated) | active: 0.282 µM | –
60 | COc1ccc(C(=O)N2CCN(c3cc(-c4ccc(Cl)cc4)[nH]n3)CC2)cc1F | inconclusive: 2 µM [inhibitor, single point] | –
61 | Cc1ccc(-n2c3c(cc(C(=O)Nc4cccc(Cl)c4)c2=O)C(=O)CC(C)(C)C3)cc1 | inactive | –
62 | O=C(c1ccco1)N1CCC(c2noc(COCC3CC3)n2)CC1 | inactive | –
63 | CCc1ccc(NC(=O)C2CCCN(S(=O)(=O)c3c(C)noc3/C=C/N(C)C)C2)cc1 (configuration not stated) | inconclusive: 11.2 µM [inhibitor, single point] | –
64 | CC(CN1CC2(CCN(C(=O)CN3C(=O)CNC3=O)CC2)OC1=O)c1ccccc1 (configuration not stated) | inactive | –
65 | O=C(Cn1ccc2cc(S(=O)(=O)N3CCCCCC3)ccc21)NCCc1ccc(Cl)cc1 | inconclusive: 0.0141 µM [inhibitor, full curve, poor fit] | –
66 | CC(C)N1Cc2cc(C(=O)NC3CCN(Cc4ccccc4)CC3)sc2C1 | inconclusive: 17.8 µM [inhibitor, single point] | –
67 | COc1ccc(-c2nnc3ccc(NC4CCCCC4)nn23)nc1 | inconclusive: 4.47 µM [inhibitor, partial curve, poor fit] | –
